About 6,900 (2%) of roughly 340,000 compounds were called active. Rule as the data show it: active = inhibition above about 30%; inactive = below that, where a call was filed. This is a selection; strong and weak results do not stand in their true shares. The source gives no active or inactive call for entries shown without one.
Biological target: D(2) dopamine receptor (Homo sapiens) (UniProt P14416)
Assay: HTS Assay for Allosteric Antagonists of the Human D2 Dopamine Receptor: Primary Screen for Antagonists; also: 0% is about no effect
Conditions: HEK293 TREx D2 cells, calcium flux, dopamine EC80; at 10 µM; stronger effect = higher value
How it was run: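 HEK293 T-REx D2 cells, tet-induced, calcium dye no-wash. Cpd pintool add, 180 s kinetic, then EC80 DA, 180 s kinetic. Ca flux read.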

UniProt P14416, sequence (P14416 whole entry, looked up): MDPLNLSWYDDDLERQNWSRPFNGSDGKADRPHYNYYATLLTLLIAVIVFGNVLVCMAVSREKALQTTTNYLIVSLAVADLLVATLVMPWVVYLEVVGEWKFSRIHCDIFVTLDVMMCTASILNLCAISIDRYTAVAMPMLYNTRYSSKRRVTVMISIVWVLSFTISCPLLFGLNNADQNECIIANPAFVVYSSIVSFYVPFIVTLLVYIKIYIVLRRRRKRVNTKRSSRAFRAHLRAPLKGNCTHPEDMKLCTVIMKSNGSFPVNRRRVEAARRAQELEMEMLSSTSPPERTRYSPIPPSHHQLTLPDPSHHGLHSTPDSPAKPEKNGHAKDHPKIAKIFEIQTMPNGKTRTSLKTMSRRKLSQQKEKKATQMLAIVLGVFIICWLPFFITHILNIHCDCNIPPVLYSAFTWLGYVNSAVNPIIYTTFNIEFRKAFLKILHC

In order of rising inhibition:
1. CCOC(=O)CSc1nc2ccc(NC(=O)COc3ccc(F)cc3)cc2s1  -19.8%
2. O=C(CSc1nc2c([nH]c3ccccc32)c(=O)n1-c1cccc(Cl)c1)c1ccccc1  -19%
3. COc1ccc(-c2nc(SCC(=O)NCC3CCCO3)c(-c3ccc(Cl)cc3)[nH]2)cc1 (stereo not given)  -18.3%
4. COc1cc2nc(SCC(=O)Nc3ccccc3C)n3nc(CCn4c(C)nc5ccccc54)nc3c2cc1OC  -17.5%
5. CC(C)(C)C1CCc2c(sc(NC(=O)c3ccco3)c2C(=O)Nc2ccccc2Cl)C1 (stereo not given)  -17%
6. COc1cc(Cl)c(C)cc1NC(=O)c1cc2c(=O)oc3ccccc3c2s1  -16.5%
7. COc1ccc(CCNC(=O)CCc2c(C)nc3c4cccnc4nn3c2C)cc1OC  -16.1%
8. Cc1cc(C)c(NC(=O)C2CCN(S(=O)(=O)c3c(C)noc3/C=C/c3ccccc3F)CC2)c(C)c1  -14.6%
9. CCCC12CN3CC(C)(CN(C1)C3c1ccc(CC)cc1)C2=O (stereo not given)  -14.2%
10. Cc1cc(C)cc(C(=O)NCCc2csc(-c3ccc(C(F)(F)F)cc3)n2)c1  -14%
11. Cn1cc(S(=O)(=O)N2CCCC2)cc1C(=O)N1CCN(c2cccc(Cl)c2)CC1  -10.8%
12. CCOc1ccc(C(=O)OCc2cc(=O)n3nc(C4CC4)sc3n2)cc1  -10.1%
13. COc1cccc(-n2cc(C(=O)Oc3ccc(F)cc3)c3ccccc3c2=O)c1  -7.45%
14. Cc1c(Cl)ccc2sc(NC(=O)c3ccc(S(=O)(=O)N4CCCC4)cc3)nc12  -6.79%
15. COc1ccc(S(=O)(=O)N2CCC(c3nnc(-c4ccccc4C)o3)CC2)c(OC)c1  -5.16%
16. COc1cccc(N2CCN(C3=NS(=O)(=O)C(c4ccc(C)cc4)=C3C)CC2)c1  -5.06%
17. O=C(NCc1ccccc1)C(=O)NCC(c1cccs1)S(=O)(=O)c1cccs1 (stereo not given)  -4.87%
18. CCC(Sc1nnc2c(n1)[nH]c1ccccc12)C(=O)Nc1ccccc1OC (stereo not given)  -4.24%
19. Cc1nnsc1C(=O)Oc1ccc(Cl)cc1  -4.07%
20. Cn1ccc2c(OCC(=O)Nc3ccc(OC(F)(F)F)cc3)cccc2c1=O  -2.84%
21. COc1ccc(N2CCN(CCCNC(=O)c3cnn(-c4ccc(C)cc4)c3-n3cccc3)CC2)cc1  -2.75%
22. CCc1ccccc1NC(=O)CSc1ncc2c(n1)-c1cc(Cl)ccc1N(Cc1ccccc1)S2(=O)=O  -2.61%
23. COc1ccc(OC)c(NC(=O)Cn2ccn(-c3ccc(F)cc3)c(=O)c2=O)c1  -1.87%
24. Cc1cc2c(cc1NS(=O)(=O)c1ccc(NC(=O)CC(C)C)cc1)n(C)c(=O)c(=O)n2C  -1.63%
25. CCCCn1cc(S(=O)(=O)c2ccc(OC)cc2)c(=O)c2cc(F)c(N3CCOCC3)cc21  -1.55%
26. CN(C)c1ccc(C(CNC(=O)c2ccccc2Cl)N2CCCC2)cc1 (stereo not given)  -1.17%
27. Cc1ccc(S(=O)(=O)c2c(Nc3ccccc3)sc(C(=O)c3ccc4c(c3)OCO4)c2N)cc1  -0.7%
28. CCn1cc(C(=O)N2CCN(c3cc(Cl)ccc3C)CC2)c(=O)c2cc(S(=O)(=O)N3CCCC3)ccc21  0.268%
29. CCOC(=O)c1ccc(N2CCN(c3ccccc3OC)CC2)c(NC(=O)Nc2ccc(CC)cc2)c1  0.435%
30. CCCNC(=O)CCn1nc(-c2ccc(C)cc2)c2ccccc2c1=O  1.11%
31. CC(=O)c1ccc(NS(=O)(=O)c2ccc(Br)s2)cc1  2.15%
32. CCc1ccc(OCC(=O)NCC(c2ccc(Cl)cc2)N2CCOCC2)cc1 (stereo not given)  3.05%
33. Cc1c(C(=O)OCC2CCCCC2)[nH]c2c1C(=O)CC(c1ccccc1Cl)C2 (stereo not given)  3.18%
34. Cc1ccc2ncc(C(=O)Nc3cccc(C(F)(F)F)c3)c(=O)n2c1  4.46%
35. Cc1cccc2sc(N(Cc3cccnc3)C(=O)CCOc3ccccc3)nc12  5.78%
36. CCOc1ccc(CCNC(=O)c2cc3c(=O)n(C)c4ccccc4c3s2)cc1OCC  7.36%
37. CCOCCCNC(=O)c1cn(CC)c2ccc(S(=O)(=O)N3CCOCC3)cc2c1=O  7.74%
38. Cc1nn2c(=O)cc(COC(=O)c3ccccc3NC(=O)C(C)C)nc2s1  8.6%
39. CC(=O)Nc1c(C)nn(-c2ccccc2)c1N1CCC(C(=O)Nc2cc(F)ccc2F)CC1  11.4%
40. COc1ccc(NC(=O)c2ncn(-c3ccccc3)n2)cc1Cl  11.4%
41. CCOC(=O)c1ccc2ncc(C(=O)OCC)c(NCCc3ccc(OC)c(OC)c3)c2c1  12.7%
42. CCOc1ccc(NC(=O)N(Cc2cn(CC)c3ccccc23)C2CCCCCC2)cc1  12.9%
43. COc1ccc(S(=O)(=O)c2c(Nc3ccc(C)cc3C)sc(C(=O)c3ccc(F)cc3)c2N)cc1  14.3%
44. Cc1cc(C)c(NC(=O)Cn2c(=O)n(CC3CCCO3)c(=O)c3ccccc32)c(C)c1 (stereo not given)  14.9%
45. CCc1ccccc1S(=O)(=O)Cc1ccc(C(=O)NCCc2ccc(C)cc2)o1  15.2%
46. Cc1ccc(Cn2c(=O)n(CCCCC(=O)NCc3ccc4c(c3)OCO4)c(=O)c3ccccc32)cc1  15.3%
47. COc1ccc(CNC(=O)C2=CC(c3ccc(OC)c(OC)c3)=NS(=O)(=O)N2C)cc1  16%
48. COc1ccccc1NC(=O)N1CCN(Cc2nc3ccc(C)cc3o2)CC1  16.2%
49. O=C(NCc1ccc2c(c1)CCN2C(=O)c1ccncc1)c1ccccc1Br  17.4%
50. CN1C(=O)Cc2cc(S(=O)(=O)NCc3ccc(Cl)cc3)ccc21  19.4%
51. Cc1ccc(N2C(=O)c3n[nH]c(C)c3C2c2ccccc2Cl)cc1 (stereo not given)  20.1%
52. COc1ccc(C)cc1S(=O)(=O)Nc1cccc(-c2ccc(N3CCCC3)nn2)c1  21.7%
53. CCc1ccc(-n2nc(C)c3c(C)cc(=O)n(CC(=O)Nc4cc(C)ccc4C)c32)cc1  25.7%

For `Cc1cc(C)c(NC(=O)c2ccc(CN3CCc4ccccc4C3)cc2)c(C)c1`, the inhibition was active: 52.4%.
For `COc1ccc(CN2CCN(C(=O)c3ccco3)CC2)cc1`, the inhibition was active: 87.3%.
With `O=C(Cn1c2[n+](c3ccc(C(F)(F)F)cc31)CCCCC2)c1cccc([N+](=O)[O-])c1` the inhibition was active: 35.3%.
With `O=C(COC(=O)/C=C/c1cccc([N+](=O)[O-])c1)Nc1ccc(Cl)cn1` the inhibition was active: 39.3%.
For `COc1ccc(CCN(C)C(=O)CCNS(=O)(=O)c2ccccc2C(F)(F)F)cc1OC`, the inhibition was active: 34.7%.
For `CSc1ccccc1NC(=O)Nc1ccc(F)c(Cl)c1`, the inhibition was active: 42.8%.
With `Cc1ccc(-c2cc(C(=O)O)c3ccccc3n2)s1` the inhibition was active: 34.2%.
